Results reported in PMC6148051, “p53 cooperates with SIRT6 to regulate cardiolipin de novo biosynthesis” (Cell Death & Disease, 2018).

Biological target: T1, His-SIRT6 (UniProt Q8N6T7)
T1 construct: Sirtuin 6 (SIRT6); source: bacteria, purified (Ni(II)-Sepharose)
Test: pull-down; GST or GST fusion proteins on glutathione-Sepharose 4B beads incubated with purified His-tagged proteins in TEN buffer (10 mM Tris-HCl, pH 8.0, 1 mM EDTA, 100 mM NaCl), 4 h, 4 °C; blot with anti-His or anti-GST, Coomassie staining
Details: both partners purified

binding result | Binder
binds | GST-p53 regulatory domain, […] aa (domain or fragment, tumor suppressor p53, regulatory domain, […] of the 393 aa protein; also called p53 […] fragment; source: bacteria, purified (glutathione-Sepharose 4B)) not shown
binds | GST-p53 DNA-binding core domain, […] aa (domain or fragment, also called p53 […] aa fragment; source: bacteria, purified (glutathione-Sepharose 4B)) not shown
